Test results as given in the supplement of paper PMC4967469.
Lines with a small IC50 respond at low doses; where the fit passes the top or lowest dose, that dose stands as a limit. The AUC spans the tested range (256-fold, ending at the top dose) of the same fit; the more sensitive the line, the further below 1. For part of these data: A top dose marked as inferred was derived from the fitted curves, not read from the paper. For part of these data: An entry number marks a drug with two screens in the source, which often give different values.

What was measured:
Experiment in all cases: Viability of human cancer cell lines after 72 h of drug (GDSC screen)
QL-X-138 = compound: C=CC(=O)Nc1cc(-n2c(=O)ccc3cnc4ccc(-c5cn[nH]c5)cc4c32)ccc1C [QL-X-138]; conditions: top dose 10.24 µM; top dose inferred
Protocol: (§1)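 Human cancer cell lines in 384-well plates, medium with 10% serum, drug for 72 h over a 256-fold dose range (nine 2-fold or five 4-fold steps up to the top dose). Adherent lines were fixed and stained with the nucleic acid dye Syto60, suspension lines read with resazurin; signal relative to control wells, capped at 0 and 100%. One two-parameter sigmoid per drug and line, fitted in a mixed model over all curves with the slope shared within a line.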

MPS-1-IN-1 = compound: COc1cc(N2CCC(O)CC2)ccc1Nc1cc(Nc2ccccc2S(=O)(=O)C(C)C)c2cc[nH]c2n1 [MPS-1-IN-1]; conditions: top dose 20 µM; top dose inferred
Protocol: as §1

Zibotentan = compound: COc1nc(C)cnc1NS(=O)(=O)c1cccnc1-c1ccc(-c2nnco2)cc1 [Zibotentan]; conditions: top dose 20 µM; top dose inferred
Protocol: as §1

KU-55933 = compound: O=c1cc(-c2cccc3c2Sc2ccccc2S3)oc(N2CCOCC2)c1 [KU-55933]; conditions: top dose 10 µM
Protocol: as §1

(5Z)-7-Oxozeaenol = compound: COc1cc(O)c2c(c1)/C=C/C[C@H](O)[C@H](O)C(=O)/C=C\C[C@H](C)OC2=O [(5Z)-7-Oxozeaenol]; conditions: top dose 10 µM; top dose inferred
Protocol: as §1

CP466722 = compound: COc1cc2ncnc(-n3nc(-c4ccccn4)nc3N)c2cc1OC [CP466722]; conditions: top dose 16 µM; top dose inferred
Protocol: as §1

GSK269962A = compound: CCn1c(-c2nonc2N)nc2cnc(Oc3cccc(NC(=O)c4ccc(OCCN5CCOCC5)cc4)c3)cc21 [GSK269962A]; conditions: top dose 5 µM; screen: GDSC drug entry 1192; top dose inferred
Protocol: as §1

ABT-888 = compound: C[C@]1(c2nc3c(C(N)=O)cccc3[nH]2)CCCN1 [ABT-888]; conditions: top dose 5 µM; top dose inferred
Protocol: as §1

CHIR-99021 = compound: Cc1cnc(-c2cnc(NCCNc3ccc(C#N)cn3)nc2-c2ccc(Cl)cc2Cl)[nH]1 [CHIR-99021]
Protocol: as §1

ABT-869 = compound: Cc1ccc(F)c(NC(=O)Nc2ccc(-c3cccc4[nH]nc(N)c34)cc2)c1 [ABT-869]; conditions: top dose 1.024 µM; top dose inferred
Protocol: as §1

Thapsigargin = compound: C/C=C(/C)C(=O)O[C@H]1C(C)=C2[C@H]([C@@H]1OC(=O)CCCCCCC)[C@@](C)(OC(C)=O)C[C@H](OC(=O)CCC)[C@@]1(O)[C@H]2OC(=O)[C@@]1(C)O [Thapsigargin]; conditions: top dose 0.512 µM; top dose inferred
Protocol: as §1

[1] = top dose 10 µM, screen: GDSC drug entry 1241, top dose inferred
[2] = top dose 2.56 µM, screen: GDSC drug entry 154

## FLO-1 (oesophagus, adherent)
QL-X-138
  AUC: 0.745
  IC50: 4.52 µM
MPS-1-IN-1
  AUC: 0.934
  IC50: > 20 µM
Zibotentan
  AUC: 0.972
  IC50: > 20 µM
KU-55933
  AUC: 0.932
  IC50: > 10 µM
(5Z)-7-Oxozeaenol
  AUC: 0.669
  IC50: 2.29 µM
CP466722
  AUC: 0.7
  IC50: 4.75 µM
GSK269962A
  AUC: 0.937
  IC50: > 5 µM
ABT-888
  AUC: 0.976
  IC50: > 5 µM
CHIR-99021; [1]
  AUC: 0.837
  IC50: > 10 µM
ABT-869
  AUC: 0.967
  IC50: > 1.02 µM

## HOP-92 (large cell lung carcinoma, adherent)
QL-X-138
  AUC: 0.984
  IC50: > 10.2 µM
MPS-1-IN-1
  AUC: 0.984
  IC50: > 20 µM
Thapsigargin
  AUC: 0.207
  IC50: 0.00372 µM
Zibotentan
  AUC: 0.984
  IC50: > 20 µM
(5Z)-7-Oxozeaenol
  AUC: 0.487
  IC50: 0.572 µM
CP466722
  AUC: 0.95
  IC50: > 16 µM
GSK269962A
  AUC: 0.663
  IC50: 0.961 µM
ABT-888
  AUC: 0.978
  IC50: > 5 µM
CHIR-99021; [2]
  AUC: 0.971
  IC50: > 2.56 µM
CHIR-99021; [1]
  AUC: 0.925
  IC50: > 10 µM
ABT-869
  AUC: 0.98
  IC50: > 1.02 µM

## HSC-4 (head and neck, adherent)
QL-X-138
  AUC: 0.757
  IC50: 4.65 µM
MPS-1-IN-1
  AUC: 0.968
  IC50: > 20 µM
Thapsigargin
  AUC: 0.755
  IC50: 0.228 µM
Zibotentan
  AUC: 0.979
  IC50: > 20 µM
(5Z)-7-Oxozeaenol
  AUC: 0.498
  IC50: 0.617 µM
CP466722
  AUC: 0.896
  IC50: > 16 µM
GSK269962A
  AUC: 0.803
  IC50: 3.51 µM
ABT-888
  AUC: 0.967
  IC50: > 5 µM
CHIR-99021; [2]
  AUC: 0.979
  IC50: > 2.56 µM
CHIR-99021; [1]
  AUC: 0.927
  IC50: > 10 µM
ABT-869
  AUC: 0.977
  IC50: > 1.02 µM

## HeLa (cervix, adherent)
QL-X-138
  AUC: 0.952
  IC50: > 10.2 µM
MPS-1-IN-1
  AUC: 0.957
  IC50: > 20 µM
Thapsigargin
  AUC: 0.214
  IC50: 0.00487 µM
Zibotentan
  AUC: 0.989
  IC50: > 20 µM
(5Z)-7-Oxozeaenol
  AUC: 0.644
  IC50: 1.53 µM
CP466722
  AUC: 0.902
  IC50: > 16 µM
GSK269962A
  AUC: 0.791
  IC50: 2.13 µM
ABT-888
  AUC: 0.977
  IC50: > 5 µM
CHIR-99021; [2]
  AUC: 0.968
  IC50: > 2.56 µM
CHIR-99021; [1]
  AUC: 0.988
  IC50: > 10 µM
ABT-869
  AUC: 0.982
  IC50: > 1.02 µM

## IGROV-1 (ovary, adherent)
KU-55933
  AUC: 0.942
  IC50: > 10 µM
(5Z)-7-Oxozeaenol
  AUC: 0.718
  IC50: 3.51 µM
GSK269962A
  AUC: 0.896
  IC50: > 5 µM
ABT-888
  AUC: 0.976
  IC50: > 5 µM
CHIR-99021; [1]
  AUC: 0.944
  IC50: > 10 µM

## JEKO-1 (B-cell lymphoma, suspension)
KU-55933
  AUC: 0.741
  IC50: 2.94 µM
(5Z)-7-Oxozeaenol
  AUC: 0.581
  IC50: 1.03 µM
GSK269962A
  AUC: 0.698
  IC50: 1.09 µM
ABT-888
  AUC: 0.975
  IC50: > 5 µM
CHIR-99021; [1]
  AUC: 0.833
  IC50: 6.07 µM

## KARPAS-1106P (B-cell lymphoma, suspension)
KU-55933
  AUC: 0.953
  IC50: > 10 µM
(5Z)-7-Oxozeaenol
  AUC: 0.857
  IC50: 5.96 µM
GSK269962A
  AUC: 0.989
  IC50: > 5 µM
ABT-888
  AUC: 0.992
  IC50: > 5 µM
CHIR-99021; [1]
  AUC: 0.993
  IC50: > 10 µM

## MOLM-16 (acute myeloid leukaemia, suspension)
KU-55933
  AUC: 0.843
  IC50: 5.85 µM
(5Z)-7-Oxozeaenol
  AUC: 0.592
  IC50: 1.08 µM
GSK269962A
  AUC: 0.769
  IC50: 1.67 µM
ABT-888
  AUC: 0.961
  IC50: > 5 µM
CHIR-99021; [1]
  AUC: 0.809
  IC50: 4.46 µM

## NCI-H292 (lung adenocarcinoma, adherent)
QL-X-138
  AUC: 0.978
  IC50: > 10.2 µM
MPS-1-IN-1
  AUC: 0.705
  IC50: 5.42 µM
Thapsigargin
  AUC: 0.387
  IC50: 0.0146 µM
Zibotentan
  AUC: 0.975
  IC50: > 20 µM
(5Z)-7-Oxozeaenol
  AUC: 0.512
  IC50: 0.678 µM
CP466722
  AUC: 0.771
  IC50: 7.49 µM
GSK269962A
  AUC: 0.635
  IC50: 0.802 µM
ABT-888
  AUC: 0.975
  IC50: > 5 µM
CHIR-99021; [2]
  AUC: 0.978
  IC50: > 2.56 µM
CHIR-99021; [1]
  AUC: 0.95
  IC50: > 10 µM
ABT-869
  AUC: 0.977
  IC50: > 1.02 µM

## NCI-H441 (lung adenocarcinoma, adherent)
QL-X-138
  AUC: 0.964
  IC50: > 10.2 µM
MPS-1-IN-1
  AUC: 0.978
  IC50: > 20 µM
Thapsigargin
  AUC: 0.324
  IC50: 0.00838 µM
Zibotentan
  AUC: 0.979
  IC50: > 20 µM
(5Z)-7-Oxozeaenol
  AUC: 0.771
  IC50: 5.48 µM
CP466722
  AUC: 0.957
  IC50: > 16 µM
GSK269962A
  AUC: 0.954
  IC50: > 5 µM
ABT-888
  AUC: 0.981
  IC50: > 5 µM
CHIR-99021; [2]
  AUC: 0.971
  IC50: > 2.56 µM
CHIR-99021; [1]
  AUC: 0.975
  IC50: > 10 µM
ABT-869
  AUC: 0.98
  IC50: > 1.02 µM

## NCI-H929 (myeloma, suspension)
KU-55933
  AUC: 0.903
  IC50: 9.77 µM
(5Z)-7-Oxozeaenol
  AUC: 0.45
  IC50: 0.466 µM
GSK269962A
  AUC: 0.916
  IC50: > 5 µM
ABT-888
  AUC: 0.973
  IC50: > 5 µM
CHIR-99021; [1]
  AUC: 0.903
  IC50: 9.77 µM

## SK-MEL-24 (melanoma, adherent)
QL-X-138
  AUC: 0.983
  IC50: > 10.2 µM
MPS-1-IN-1
  AUC: 0.803
  IC50: 12.6 µM
Thapsigargin
  AUC: 0.95
  IC50: > 0.512 µM
Zibotentan
  AUC: 0.98
  IC50: > 20 µM
(5Z)-7-Oxozeaenol
  AUC: 0.366
  IC50: 0.246 µM
CP466722
  AUC: 0.98
  IC50: > 16 µM
GSK269962A
  AUC: 0.882
  IC50: > 5 µM
ABT-888
  AUC: 0.977
  IC50: > 5 µM
CHIR-99021; [2]
  AUC: 0.983
  IC50: > 2.56 µM
CHIR-99021; [1]
  AUC: 0.911
  IC50: > 10 µM
ABT-869
  AUC: 0.983
  IC50: > 1.02 µM

## U251 (glioma, adherent)
QL-X-138
  AUC: 0.594
  IC50: 1.14 µM
MPS-1-IN-1
  AUC: 0.848
  IC50: 13.9 µM
Thapsigargin
  AUC: 0.229
  IC50: 0.00548 µM
Zibotentan
  AUC: 0.982
  IC50: > 20 µM
(5Z)-7-Oxozeaenol
  AUC: 0.698
  IC50: 2.19 µM
CP466722
  AUC: 0.788
  IC50: 6.69 µM
GSK269962A
  AUC: 0.906
  IC50: > 5 µM
ABT-888
  AUC: 0.986
  IC50: > 5 µM
CHIR-99021; [2]
  AUC: 0.987
  IC50: > 2.56 µM
CHIR-99021; [1]
  AUC: 0.985
  IC50: > 10 µM
ABT-869
  AUC: 0.983
  IC50: > 1.02 µM

## UM-UC-3 (bladder, adherent)
QL-X-138
  AUC: 0.713
  IC50: 2.44 µM
MPS-1-IN-1
  AUC: 0.797
  IC50: 8.8 µM
Thapsigargin
  AUC: 0.214
  IC50: 0.00496 µM
Zibotentan
  AUC: 0.977
  IC50: > 20 µM
(5Z)-7-Oxozeaenol
  AUC: 0.61
  IC50: 1.23 µM
CP466722
  AUC: 0.75
  IC50: 4.95 µM
GSK269962A
  AUC: 0.885
  IC50: 4.87 µM
ABT-888
  AUC: 0.988
  IC50: > 5 µM
CHIR-99021; [2]
  AUC: 0.981
  IC50: > 2.56 µM
CHIR-99021; [1]
  AUC: 0.934
  IC50: > 10 µM
ABT-869
  AUC: 0.985
  IC50: > 1.02 µM
